Test results as given in the supplement of paper PMC8728848.
The list shows a part of the results.

Columns and labels:
Assay in all cases: glycan array binding signal (z-score within array); higher = stronger binding
Conditions in all cases: glycan notation: IUPAC condensed, linker removed
[1] = target: Gal(b1-4)GlcNAc(b1-2)Man(a1-3)[Gal(b1-4)GlcNAc(b1-2)Man(a1-6)]Man(b1-4)GlcNAc(b1-4)GlcNAc
Summary of the method: (§1)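 The Consortium for Functional Glycomics database supplied 3228 glycan arrays, of which those lacking an available protein sequence were dropped. The binding signal, a within-array Z-score, was averaged across arrays of the same protein sequence and across linkers. Negative scores can be read as non-binding.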

[2] = target: Gal(b1-4)GlcNAc(b1-2)Man(a1-3)[Gal(b1-4)GlcNAc(b1-2)Man(a1-6)]Man(b1-4)GlcNAc(b1-4)[Fuc(a1-6)]GlcNAc
Summary of the method: as §1

[3] = target: Gal(b1-4)GlcNAc(b1-2)Man(a1-3)[Gal(b1-4)GlcNAc(b1-2)Man(a1-6)][Gal(b1-4)GlcNAc(b1-4)]Man(b1-4)GlcNAc(b1-4)[Fuc(a1-6)]GlcNAc
Summary of the method: as §1

[4] = target: Gal(b1-4)GlcNAc(b1-2)Man(a1-3)[Gal(b1-4)GlcNAc(b1-2)Man(a1-6)][GlcNAc(b1-4)]Man(b1-4)GlcNAc(b1-4)[Fuc(a1-6)]GlcNAc
Summary of the method: as §1

[5] = target: Gal(b1-4)GlcNAc(b1-2)Man(a1-3)[GlcNAc(b1-2)Man(a1-6)]Man(b1-4)GlcNAc(b1-4)GlcNAc
Summary of the method: as §1

[6] = target: Gal(b1-4)GlcNAc(b1-2)Man(a1-3)[GlcNAc(b1-4)][Gal(b1-4)GlcNAc(b1-2)Man(a1-6)]Man(b1-4)GlcNAc(b1-4)GlcNAc
Summary of the method: as §1

[7] = target: Gal(b1-4)GlcNAc(b1-2)Man(a1-3)[Man(a1-6)]Man(b1-4)GlcNAc(b1-4)GlcNAc
Summary of the method: as §1

[8] = target: Gal(b1-4)GlcNAc(b1-2)Man(a1-6)Man(b1-4)GlcNAc(b1-4)GlcNAc
Summary of the method: as §1

[9] = target: Gal(b1-4)GlcNAc(b1-2)Man(a1-6)[GlcNAc(b1-2)Man(a1-3)]Man(b1-4)GlcNAc(b1-4)GlcNAc
Summary of the method: as §1

[10] = target: Gal(b1-4)GlcNAc(b1-2)Man(a1-6)[Man(a1-3)]Man(b1-4)GlcNAc(b1-4)GlcNAc
Summary of the method: as §1

[11] = target: Gal(b1-4)GlcNAc(b1-2)[Gal(b1-4)GlcNAc(b1-4)]Man(a1-3)[Gal(b1-4)GlcNAc(b1-2)Man(a1-6)]Man(b1-4)GlcNAc(b1-4)GlcNAc
Summary of the method: as §1

[12] = target: Gal(b1-4)GlcNAc(b1-2)[Gal(b1-4)GlcNAc(b1-4)]Man(a1-3)[Gal(b1-4)GlcNAc(b1-2)[Gal(b1-4)GlcNAc(b1-6)]Man(a1-6)]Man(b1-4)GlcNAc(b1-4)GlcNAc
Summary of the method: as §1

[13] = target: Gal(b1-4)GlcNAc(b1-2)[Gal(b1-4)GlcNAc(b1-4)]Man(a1-3)[GlcNAc(b1-4)][Gal(b1-4)GlcNAc(b1-2)Man(a1-6)]Man(b1-4)GlcNAc(b1-4)GlcNAc
Summary of the method: as §1

[14] = target: Gal(b1-4)GlcNAc(b1-2)[Gal(b1-4)GlcNAc(b1-4)]Man(a1-3)[GlcNAc(b1-4)][Gal(b1-4)GlcNAc(b1-2)[Gal(b1-4)GlcNAc(b1-6)]Man(a1-6)]Man(b1-4)GlcNAc(b1-4)GlcNAc
Summary of the method: as §1

[15] = target: Gal(b1-4)GlcNAc(b1-2)[Gal(b1-4)GlcNAc(b1-6)]Man(a1-6)[Gal(b1-4)GlcNAc(b1-2)Man(a1-3)]Man(b1-4)GlcNAc(b1-4)GlcNAc
Summary of the method: as §1

[16] = target: Gal(b1-4)GlcNAc(b1-2)[Gal(b1-4)GlcNAc(b1-6)]Man(a1-6)[Gal(b1-4)GlcNAc(b1-2)Man(a1-3)]Man(b1-4)GlcNAc(b1-4)[Fuc(a1-6)]GlcNAc
Summary of the method: as §1

[17] = target: Gal(b1-4)GlcNAc(b1-2)[Gal(b1-4)GlcNAc(b1-6)]Man(a1-6)[GlcNAc(b1-4)][Gal(b1-4)GlcNAc(b1-2)Man(a1-3)]Man(b1-4)GlcNAc(b1-4)GlcNAc
Summary of the method: as §1

[18] = target: Gal(b1-4)GlcNAc(b1-2)[Gal(b1-4)GlcNAc(b1-6)]Man(a1-6)[GlcNAc(b1-4)][Gal(b1-4)GlcNAc(b1-2)[Gal(b1-4)GlcNAc(b1-4)]Man(a1-3)]Man(b1-4)GlcNAc(b1-4)[Fuc(a1-6)]GlcNAc
Summary of the method: as §1

[19] = target: Gal(b1-4)GlcNAc(b1-3)Gal(b1-3)GalNAc
Summary of the method: as §1

B1: DrGal9 (Danio rerio) (protein)
chain: MAFYQQPPYYNPRIPFSGPIQGGLQDGKSIIISGRVLPGANRFHVNLQCGSHSEANVALHFNPRYEDTDYVVNNSYLNRTWGSEERKYESPFAQGQTFTLQILVAQDKYKISTNGRHFMDYKHRIPFTQVDTVAVEGMVEVNSVAFQNPAGFIPPQAGYAPQYAVPPGCGFPAFPSAPNYTIPHKTVMNGGLHPGKNIVINGVVNPNAKSIIFNLCYRSGIAFHYNPRFDENVVVRNTNQMEKWGAEERFGGLPFHKGQPFQVTISCNPQHYNVFVNGKQEHTYKHRYTKLNDIDILEICGDLQLTSVQA
- glycan array binding signal (z-score) [1]: 0.072
- glycan array binding signal (z-score) [2]: 0.166
- glycan array binding signal (z-score) [3]: 0.302
- glycan array binding signal (z-score) [4]: 0.083
- glycan array binding signal (z-score) [5]: -0.148
- glycan array binding signal (z-score) [6]: -0.072
- glycan array binding signal (z-score) [7]: 0.144
- glycan array binding signal (z-score) [8]: -0.094
- glycan array binding signal (z-score) [9]: -0.234
- glycan array binding signal (z-score) [10]: -0.023
- glycan array binding signal (z-score) [11]: 0.969
- glycan array binding signal (z-score) [12]: 0.365
- glycan array binding signal (z-score) [13]: 0.341
- glycan array binding signal (z-score) [14]: 0.66
- glycan array binding signal (z-score) [15]: 0.289
- glycan array binding signal (z-score) [16]: 1.75
- glycan array binding signal (z-score) [17]: 0.383
- glycan array binding signal (z-score) [18]: 0.393
- glycan array binding signal (z-score) [19]: 0.158
